{"source": "the supplement of paper PMC11417369", "note": "This is one part of the list.", "data": [{"system": "PfSIP2 AP2 domain 1 (GST-tagged)", "experiment": "gcPBM binding intensity (ln(normalized median fluorescence intensity)); higher = stronger DNA binding", "in_short": "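Binding of GST-tagged P. falciparum DNA-binding domains, expressed in E. coli and used at about 25 μg on average, was carried out for 1 h in 1× PBS containing 1% milk, 0.2 mg/ml BSA, 0.5% salmon testes DNA and 0.03% Triton X-100. The target was an Agilent 4 × 180k array of primer-extended double-stranded 36-bp intergenic genomic probes plus negative controls, read with Alexa488 anti-GST antibody at 488 nm. Binding intensity is the highest Masliner-normalised natural-log median intensity across replicate spots of either probe orientation.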", "values": [{"sequence": "GAATCACTAATTTTTTTACACACCACAATTTAATTT [CACACA_site8311]", "gcPBM binding intensity (ln)": 7.26}, {"sequence": "ACAAAACATAATTGTTGTACAAAAAGAATTATATAT [XGTACX_site8422]", "gcPBM binding intensity (ln)": 7.2}, {"sequence": "ATAATAATATAATATTCACACAATTGAAATAGTGTA [CACACA_site6083]", "gcPBM binding intensity (ln)": 6.84}, {"sequence": "AAATAAAAATTACAAGCATGCATTTTCCTATTTGCA [TGCATGCA_site861]", "gcPBM binding intensity (ln)": 6.43}, {"sequence": "GTGTAAAAATTAAAGTGTACACATATATATATATAT [XGTACX_site2251]", "gcPBM binding intensity (ln)": 9.87}, {"sequence": "AAAAAATTTTGAAATTGTACATATATAAAAAATATA [XGTACX_site2629]", "gcPBM binding intensity (ln)": 6.91}, {"sequence": "TTTAAATATATTAATACACACACGATATGTACAAAA [CACACA_site539]", "gcPBM binding intensity (ln)": 7.02}, {"sequence": "GAATAAATTGTATTGTGTACATATAAAAGCATCTAA [XGTACX_site8271]", "gcPBM binding intensity (ln)": 7.13}, {"sequence": "TATAAATATACAAAGGTGCATAAAAAGTTATGTTTT [GTGCAC_site9832]", "gcPBM binding intensity (ln)": 10.4}, {"sequence": "TTTCTATAATATTCTACACACCAACAACAAACATAT [CACACA_site6409]", "gcPBM binding intensity (ln)": 7.38}, {"sequence": "GGTCTTTTTATGATATGTACTTATATAATATTATAT [XGTACX_site6458]", "gcPBM binding intensity (ln)": 7.8}, {"sequence": "ATGTAGAAGTAATGCACACATATGTATATATATATA [CACACA_site2494]", "gcPBM binding intensity (ln)": 9.37}, {"sequence": "AACAGCATGAAGTAAAGTACTAGTTTTATTTATTTA [XGTACX_site1116]", "gcPBM binding intensity (ln)": 6.73}, {"sequence": "AGGAAATTTTTTTTTTTTTTTTTTTTTTTTTTTTAC [TGCATGCA_negctrl_site170]", "gcPBM binding intensity (ln)": 6.81}, {"sequence": "ATAATATATAATATAGTGCATTATTTATTAATTAAT [GTGCAC_site9852]", "gcPBM binding intensity (ln)": 10.1}, {"sequence": "TCCTAATGGTTTAATTGTACAAAAAAAAAAAATATA [XGTACX_site322]", "gcPBM binding intensity (ln)": 7.05}, {"sequence": "TGATAAGTATACTAAAGTACATGAAAAATAACTTCC [XGTACX_site6908]", "gcPBM binding intensity (ln)": 6.87}, {"sequence": "TGATTATAAAAGTAGGTGCTACAAAAATTACACATT [GTGCAC_site9530]", "gcPBM binding intensity (ln)": 7.65}, {"sequence": "ATAGATGTCTTCATATGTACATAAATTCAAGTATAT [XGTACX_site7492]", "gcPBM binding intensity (ln)": 7.02}, {"sequence": "CAAAATATTATGAATTGTACATATTTTAAAACGTTT [XGTACX_site1614]", "gcPBM binding intensity (ln)": 6.86}, {"sequence": "TTATATTTTAAGAAATGTACATGATATAATTATCAA [XGTACX_site8693]", "gcPBM binding intensity (ln)": 6.95}, {"sequence": "TGGATGAGGACATACACACACACATAAGTTGATACA [CACACA_site3423]", "gcPBM binding intensity (ln)": 7.06}, {"sequence": "TATTTCTTATGAAGGACATGCAATATTATTTATCTC [TGCATGCA_site683]", "gcPBM binding intensity (ln)": 6.75}, {"sequence": "AATGAAAAGGAACATACACACCCCATATAAATATAT [CACACA_site7588]", "gcPBM binding intensity (ln)": 7.2}, {"sequence": "TTTTTTTTAATTTTCTGTACAAATTTATATATACTA [XGTACX_site4251]", "gcPBM binding intensity (ln)": 6.91}, {"sequence": "TGATATAAAATTAAAGTGCAAAAAAAAAATAAAAAA", "gcPBM binding intensity (ln)": 8.36}, {"sequence": "ATAATATTATGAACCTGTACATAATTTTTCTTTTCT [XGTACX_site3377]", "gcPBM binding intensity (ln)": 6.78}, {"sequence": "TATAATTTTTTTGAATTATATATATATATATATAAT [XGTACX_negctrl_site26]", "gcPBM binding intensity (ln)": 7.48}, {"sequence": "AGTATATTTCTAACTTGTACGAAATTAATAATTTAT [XGTACX_site6635]", "gcPBM binding intensity (ln)": 6.92}, {"sequence": "TATATATAATATGAATGTACACAAAAAGGTAATACA [XGTACX_site6202]", "gcPBM binding intensity (ln)": 7.2}, {"sequence": "AAAAAAAAGAAATAGACACACATATATTTTTAAACA [CACACA_site3954]", "gcPBM binding intensity (ln)": 6.71}, {"sequence": "TTTTTTTCTTAAAGATGTACTTTTTAAAAACAATCT [XGTACX_site986]", "gcPBM binding intensity (ln)": 6.83}, {"sequence": "CATTTTATAAAAACAAGTACCCAACATATATATAAT [XGTACX_site5955]", "gcPBM binding intensity (ln)": 7.23}, {"sequence": "AGACATATTCTTTTTACACACTTGAATAAAAAATAT [CACACA_site1205]", "gcPBM binding intensity (ln)": 6.99}, {"sequence": "GATGAGGACAGACACACACACATAAGTTGATACATA [CACACA_site7580]", "gcPBM binding intensity (ln)": 7.17}, {"sequence": "GTTTTTACTTTTATCTGTACATAATACTACCAATAT [XGTACX_site5414]", "gcPBM binding intensity (ln)": 7.32}, {"sequence": "CACGCGCACCAACACACACACACACCCATATATATA [CACACA_site2204]", "gcPBM binding intensity (ln)": 10.6}, {"sequence": "GTTGGGTAATTCGTAACACACATAAAATATATATAA [CACACA_site3986]", "gcPBM binding intensity (ln)": 7}, {"sequence": "CTGTACACTTAAACGGTGCAAAAAGAAAAAAAAGAA", "gcPBM binding intensity (ln)": 10.9}, {"sequence": "TGCCTATGACATGAATGTACATTAAAATTAAATAAA [XGTACX_site7126]", "gcPBM binding intensity (ln)": 6.96}, {"sequence": "ACAGCTCTAGGACATGCATGTTATATAGAAAAAGAG [TGCATGCA_site703]", "gcPBM binding intensity (ln)": 7.43}, {"sequence": "AAGTTAATGTTTTGCGCACACTTCTTTTTAATATAA [CACACA_site3938]", "gcPBM binding intensity (ln)": 7.39}, {"sequence": "TTCTTTATATAAACAAGTACATATAAAATACATATA [XGTACX_site8036]", "gcPBM binding intensity (ln)": 7.02}, {"sequence": "AAATACATATTTAGAAGTACATTTATACATTTAATA [XGTACX_site8871]", "gcPBM binding intensity (ln)": 7.04}]}]}
